Key:
[1] = system: MOCK CHO-K1; test: Cell-based ELISA, MOCK CHO-K1 (empty vector); type: binding; settings: MOCK CHO-K1 negative control
From the text: A CHO-K1 cell line into which a gene (SEQ ID NO: 29) encoding the claudin 18.1 protein (CLDN18.1) was transiently transfected (hereinafter, referred to as “Claudin 18.1 CHO-K1”), a CHO-K1 cell line into which a gene (SEQ ID NO: 30) encoding the claudin 18.2 protein (CLDN18.2) was transiently transfected (hereinafter, referred to as “Claudin 18.2 CHO-K1”), and a CHO-K1 cell line into which only a MOCK vector (empty vector) was transiently transfected (hereinafter, referred to as “MOCK CHO-K1”) were prepared. At this time, a pcDNA3.1 vector was used in the case of Claudin 18.1 CHO-K1, and a pcDNA3.1 (+) vector was used in the case of Claudin 18.2 CHO-K1. […]
(§1) Transient transfection was performed according to the TransIT2020 manual, the transfected cells were plated on a 96-well plate for culture, and then treated with antibody-A and ADC-A, respectively, and then cell-based enzyme-linked immunosorbent assay (ELISA) was performed, and optical density (OD) values were measured. At this time, the measured values are illustrated in FIGS. 34 to 36.
(§2) The measured results were used for regression analysis in GraphPad PRISM® 9.0 software to calculate EC50 and Bmax. The cell binding strength of antibody-A and ADC-A was evaluated based on the calculated values.

[2] = molecular target: T1, claudin 18.2 protein (CLDN18.2) (Homo sapiens, UniProt P56856); test: Cell-based ELISA, Claudin 18.2 CHO-K1; type: binding; settings: for Bmax: CLDN18.2-CHO-K1, OD 450 nm, regression analysis; for binding to cell line (in words): Claudin 18.2 CHO-K1
T1 construct: expressed in transfected cells; host or cells: CHO-K1, transient, pcDNA3.1 (+) vector
From the text: A CHO-K1 cell line into which a gene (SEQ ID NO: 29) encoding the claudin 18.1 protein (CLDN18.1) was transiently transfected (hereinafter, referred to as “Claudin 18.1 CHO-K1”), a CHO-K1 cell line into which a gene (SEQ ID NO: 30) encoding the claudin 18.2 protein (CLDN18.2) was transiently transfected (hereinafter, referred to as “Claudin 18.2 CHO-K1”), and a CHO-K1 cell line into which only a MOCK vector (empty vector) was transiently transfected (hereinafter, referred to as “MOCK CHO-K1”) were prepared. At this time, a pcDNA3.1 vector was used in the case of Claudin 18.1 CHO-K1, and a pcDNA3.1 (+) vector was used in the case of Claudin 18.2 CHO-K1.
The CHO-K1 cell lines were cultured in RPMI1640 containing 10% FBS and 1% penicillin/streptomycin in an incubator under the conditions of 37° C. and 5% CO2.
as §1, §2

[3] = system: MIA PaCa-2 (CLDN18.2-); test: Real-time cellular internalization (Incucyte); type: cell-based; settings: 8, 4, and 2 μg/mL; cell line does not express CLDN18.2
Experimental: Real-time internalization measurements were performed according to the reagent and equipment manual.
The prepared cell lines were cultured in DMEM containing 10% FBS and 1% penicillin/streptomycin (MIA PaCa-2˜CLDN18.2, MIA PaCa-2 (CLDN18.2-)) and RPMI1640 containing 10% FBS and 1% penicillin/streptomycin (SNU601) in an incubator under the conditions of 37° C. and 5% CO2. 96-well plates were plated with MIA PaCa (CLDN18.2-), MIA PaCa-2˜CLDN18.2, and SNU601 cell lines at 3,000 to 5,000 cells/well.
Samples for internalization verification antibody-A and ADC-A were prepared according to the Incucyte@ Fabfluor -pH reagent manual.
Finally, antibody-A and ADC-A were diluted to 8, 4, and 2 μg/mL, respectively, and were treated to designated wells 50 μL of each. The plates mixed with the sample were measured every hour using the Incucyte@ Live-Cell Analysis System to measure the internalization levels. The measured values are illustrated in FIGS. 42 to 44.

[4] = system: SNU601 cell line; test: In vivo drug efficacy, SNU601 gastric cancer tumor model; set-up: species or system BALB/c nude mouse
Experimental: The SNU601 cell line, which is a CLDN18.2-positive gastric cancer cell line, was cultured in an RPMI culture solution containing 10% FBS and 1% penicillin/streptomycin in an incubator under the conditions of 37° C. and 5% CO2. The SNU601 cell line was regularly subcultured once a week through trypsin-EDTA treatment.
For Tumor Development, an SNU601 Cell Line (1×10^7) was Mixed with Serum-Free medium and Matrigel and the resulting mixture was inoculated subcutaneously into the left flank of each BALB/c nude mouse (purchased from Charles River Laboratories Japan Inc.). Each mouse was randomly assigned to eight groups (G1 to G8) on the basis that the average tumor volume in each group reached about 155 mm^3.
All animals were observed twice a day for mortality, abnormal symptoms, pain and signs of stress, and once a day for clinical signs. The change in body weight and the tumor volume were measured three times a week, and the tumor weight was determined after autopsy. The tumor volume, tumor difference, and tumor growth inhibition were calculated as follows:
Tumor Volume (mm^3)=(Length of major axis×length of minor axis^2)/2
Tumor difference, %=((Tumor weighttest group−Tumor weightcontrol (G1))/Tumor weightcontrol (G1))×100.
Tumor growth inhibition (%)=100−(((Tf/Ti)test group)/((Tf/Ti)control))×100.
Tf is the last tumor volume measured before autopsy, and Ti is the first tumor volume measured.
At this time, the measured tumor volumes are illustrated in FIG. 55. The measured body weights are illustrated in FIG. 56. The shape of the tumors after autopsy was the same as that in FIG. 57. The tumor weights determined after autopsy is illustrated in FIG. 58.
Numerical data regarding the performance of the study was calculated as mean and standard deviation. Group variances were compared using the Bartlett's test at a 0.05 significance level for each parameter. When the difference between group variances was not significant, a parametric one-way analysis of variance (ANOVA) was performed. When a significant difference between means was indicated by ANOVA (p≤0.05), group mean comparisons between the control and each treatment group were performed using Dunnett's test. […] When significance was identified by the Kruskal-Wallis test (p<0.05), the significance of the difference between the control and each treatment group was assessed using the Dunn's multiple comparison test. Significance was reported at the 0.05, 0.01 and 0.001 levels for the comparison of each group. All statistical analyses were performed using GraphPad PRISM® Version 5.0.

[5] = 2 mg/kg, 1 time/Day1, Intravenous Injection (G2, G8)

B1: Antibody-A: antibody comprising a light chain of SEQ ID NO: 26 and a heavy chain of SEQ ID NO: 25 (antibody)
heavy: QVQLVESGGGVVQPGRSLRLSCAASGFSLTTYGVHWVRQAPGKGLEWVAVIWAGGSTNYNSALMSRFTISRDNSKNTLYLQMNSLRAEDTAVYYCARAAYYGNGLDYWGQGTMVTVSS[… human IgG1 constant region …]
light: DIVMTQSPLSLPVTPGEPASISCKSSQTLLNSGNQKNYLTWYLQKPGQSPQLLIYWASTGESGVPDRFSGSGSGTDFTLKISRVEAEDVGVYYCQNAYFYPFTFGGGTKVEIKRTVAAPSVFIFPPSDEQLKSGTASVVCLLNNFYPREAKVQWKVDNALQSGNSQESVTEQDSKDSTYSLSSTLTLSKADYEKHKVYACEVTHQGLSSPVTKSFNRGEC
modifications: anti-CLDN 18.2 antibody Heavy chain; anti-CLDN 18.2 antibody Light chain
binding to cell line (in words) [1]: do not bind | Bmax [2]: 1.149 | binding to cell line (in words) [2]: specifically bind | internalization (in words) [3]: not internalized | Tumor Volume (mm^3) (Average ± Standard Deviation) Day 1 [4, 5]: 155.8 mm^3 | Tumor Volume (mm^3) (Average ± Standard Deviation) Day 8 [4, 5]: 211.3 mm^3 | Tumor Volume (mm^3) (Average ± Standard Deviation) Day 15 [4, 5]: 280.4 mm^3 | Tumor Volume (mm^3) (Average ± Standard Deviation) Day 22 [4, 5]: 316.8 mm^3 | Tumor Volume (mm^3) (Average ± Standard Deviation) Day 28 [4, 5]: 384.3 mm^3 | Tumor Weight (g) (Average ± Standard Deviation) 28th day after first administration [4, 5]: 0.250 ± 0.092 g | TGI (%) Day 28 (Tumor Growth Inhibition) ([4]; 2 mg/kg, 1 time/Day1, Intravenous Injection (G2, G8), vs G1 saline): 9.3%

B2: ADC-A (conjugate)
heavy: QVQLVESGGGVVQPGRSLRLSCAASGFSLTTYGVHWVRQAPGKGLEWVAVIWAGGSTNYNSALMSRFTISRDNSKNTLYLQMNSLRAEDTAVYYCARAAYYGNGLDYWGQGTMVTVSS[… human IgG1 constant region …]
light: DIVMTQSPLSLPVTPGEPASISCKSSQTLLNSGNQKNYLTWYLQKPGQSPQLLIYWASTGESGVPDRFSGSGSGTDFTLKISRVEAEDVGVYYCQNAYFYPFTFGGGTKVEIKRTVAAPSVFIFPPSDEQLKSGTASVVCLLNNFYPREAKVQWKVDNALQSGNSQESVTEQDSKDSTYSLSSTLTLSKADYEKHKVYACEVTHQGLSSPVTKSFNRGEC
binding to cell line (in words) [1]: do not bind | Bmax [2]: 0.9386 | binding to cell line (in words) [2]: specifically bind | internalization (in words) [3]: not internalized | Tumor Weight (g) (Average ± Standard Deviation) 28th day after first administration ([4]; 1.75 mg/kg, 1 time/Day1, Intravenous Injection (G7)): 0.002 ± 0.006 g | tumor growth inhibition (TGI) ([4]; all ADC-A treatment groups (1 to 2 mg/kg, G4 to G8), Day 28): 60.1 to 98.3%
